# The whole screen tested about 50,000 compounds, of which about 800 (1.6%) showed an effect of 50% or more. This is one part of the list.
# Molecular target: Bcl-2-like protein 10 (Homo sapiens) (UniProt Q9HD36)
# Assay: TR3 peptide-Bcl-B binding displacers, biochemical primary FP assay, phenotype converters (AID 1240);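 note: 0% = Bcl-B with tracer peptide and DMSO and 100% = tracer peptide lacking Bcl-B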
# Conditions: GST-Bcl-B / FITC-TR3 peptide fluorescence polarization; stronger effect = higher value; compound at 3.75 mg/L
# Chain of UniProt Q9HD36 (Q9HD36 whole entry, looked up): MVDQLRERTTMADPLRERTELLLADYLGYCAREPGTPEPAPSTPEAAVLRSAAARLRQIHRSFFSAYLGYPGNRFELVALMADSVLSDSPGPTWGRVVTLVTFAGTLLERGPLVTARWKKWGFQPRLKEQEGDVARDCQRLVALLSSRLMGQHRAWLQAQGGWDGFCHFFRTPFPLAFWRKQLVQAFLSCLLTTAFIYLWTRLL
row,Compound,displacement [%]
1,CCOc1cc(C=O)ccc1OCc1c(C)no[n+]1[O-],-3.8
2,O=C(/C=C(/O)c1ccc(Cl)cc1)C(=O)Nc1ccccc1,-3.3
3,CC(C(=O)c1ccc(-c2ccccc2)cc1)[n+]1cccc(NC(=O)c2ccccc2)c1 (stereo not drawn),11.6
4,Cc1ccc(OCC(=O)Nc2ccc(F)c([N+](=O)[O-])c2)c(C)c1,4.8
5,O=C(Nc1ccccc1Cl)c1ccn(C(=O)c2cccc(Cl)c2)n1,1.8
6,O=C(CC1(C(F)(F)F)NCCN1)c1cccc([N+](=O)[O-])c1,1.3
7,COc1cc(C=NN2CCN(Cc3ccc(C)cc3C)CC2)cc(Br)c1O,10.3
8,Cc1ccc(C(=O)O)cc1NC(=O)C1CC=CCC1C(=O)O (stereo not drawn),-5.3
9,CCC(C(=O)NCCc1ccc(OC)c(OC)c1)c1ccccc1 (stereo not drawn),-2.5
10,O=C(CSc1nc2sc3c(c2c(=O)[nH]1)CCCC3)N1CCCCC1,-3
11,CCOc1ccc(N(CC(=O)Nc2ccccc2CC)S(=O)(=O)c2ccc(SC)cc2)cc1,1.1
12,COc1cccc(N(CC(=O)Nc2ccc(I)cc2)S(=O)(=O)c2ccccc2)c1,2.6
13,O=C(NN=C(/C=C/c1ccccc1)/C=C/c1ccccc1)c1ccc(O)cc1O,-6.1
14,O=C(c1ccc2c(c1)OCO2)N1CCCc2ccccc21,2.2
15,COc1ccccc1C1C(C(C)=O)=C(O)C(=O)N1c1nc2ccccc2s1 (stereo not drawn),7.7
16,CCCc1c(O)nc(SCCN2CCOCC2)n(-c2ccccc2)c1=O,8.1
17,COCC(=O)Nc1ccc2ccccc2c1,-2.7
18,NS(=O)(=O)c1cccc(NC(=O)c2ccc([N+](=O)[O-])cc2)c1,8.4
19,O=C(CCN1C(=O)/C(=C\c2cccs2)SC1=S)Nc1ccc(Cl)cc1,77.4
20,COC(=O)c1sc(NC(=O)/C=C/c2ccco2)c(C(=O)OC)c1C,15.3
21,CCN(CC)CCCNC(=O)c1cccc([N+](=O)[O-])c1C,18.5
22,O=C(/C=C/c1ccc(-c2cccc(Cl)c2Cl)o1)c1cccs1,13.7
23,COc1ccc(Cl)cc1C(=O)Nc1cc([N+](=O)[O-])ccc1Cl,4.4
24,COc1cc(C(=O)NC(NC(=S)Nc2ccc(C)cc2)C(Cl)(Cl)Cl)cc(OC)c1OC (stereo not drawn),-3.2
25,Cc1ccc([N+](=O)[O-])cc1NC(=O)COc1ccccc1Cl,-8.6
26,O=C(/C=C\Nc1ccc([N+](=O)[O-])cc1Br)c1ccc2c(c1)OCO2,3
27,COc1ccc(CNS(=O)(=O)c2ccc3ccccc3c2)cc1,-1.2

row,Compound,displacement [%]
1,CC(C)(C)CC(C)(C)NC(=O)CSc1ncc(-c2ccccc2)[nH]1,-1.7
2,O=C(COc1ccccc1[N+](=O)[O-])Nc1ccc(Cl)c(Cl)c1,12.1
3,CCOc1ccc(N/C=C\C(=O)c2ccc(F)cc2)c([N+](=O)[O-])c1,5.1
4,O=[N+]([O-])c1ccc(/C=N/NS(=O)(=O)c2ccc(Cl)cc2)cc1,-0.3
5,COc1ccccc1N1CCN(C(=O)CN(c2cc(Cl)ccc2OC)S(=O)(=O)c2ccc(C)cc2)CC1,9.1
6,COc1ccc(CN2CCN(S(C)(=O)=O)CC2)c(OC)c1,5.6
7,O=c1oc2cc([N+](=O)[O-])ccc2nc1/C=C(\O)c1cccs1,94
8,CCOC(=O)C1=C(O)/C(=C/c2cccnc2)SC1=Nc1cccc2ccccc12,31.1
9,CCNC(=O)CC1S\C(=N/N=C/C=C/c2ccccc2)NC1=O (stereo not drawn),10
10,O=C(COc1ccc(Br)cc1)Nc1cccc(Cl)c1,-7.8
11,CC(=O)Nc1c(C)cc(C2(c3cc(C)c(NC(C)=O)c(C)c3)CCCCC2)cc1C,18.4
12,CN(C)c1ccc([N+](=O)[O-])cc1/C=N/NC(=O)CCc1ccccc1O,2.5
13,CC(C)N=C1NS(=O)(=O)c2cc([N+](=O)[O-])ccc21,8.4
14,Cc1nn(-c2cc(Cl)ccc2Cl)c(C)c1-c1cccc([N+](=O)[O-])c1,0.5
15,CC1=C(C(=O)OCCOc2ccccc2)C(c2ccc(C)o2)C2=C(CC(C)(C)CC2=O)N1 (stereo not drawn),-12.8
16,c1cc(CN2CCN(C3CCCCC3)CC2)ccn1,-6.4
17,CCCC(=O)Nc1ccc(NC(=O)c2ccc([N+](=O)[O-])o2)cc1,-1.2
18,O=C(O)CCCC(=O)N(Cc1ccccc1)Cc1ccccc1,-11
19,Cc1ccc(C(=O)N/C(=C/c2ccccc2Cl)C(=O)Nc2ccc(S(=O)(=O)Nc3nccs3)cc2)cc1,-0.9
20,COc1cccc(/C=N/NC(=O)c2cc(-c3ccc4ccccc4c3)n[nH]2)c1,-7.4
21,O=C(CN1C(=O)/C(=C/c2ccc(Br)cc2)SC1=S)Nc1ncc(Cc2cccc([N+](=O)[O-])c2)s1,17.9
22,CC(=O)N/C(=C/c1ccc2c(c1)OCO2)C(=O)NC(Cc1ccccc1)C(=O)O (stereo not drawn),2.7
23,O=C(Nc1cccc(Cl)c1Cl)C1CN(S(=O)(=O)c2ccccc2)CCN1S(=O)(=O)c1ccccc1 (stereo not drawn),13.6
24,N#Cc1c(N)c(C(=O)c2ccc(Br)cc2)n2c1CCC2,6.7
25,O=C(Nc1nc(-c2ccc(F)cc2F)cs1)c1c(F)cccc1F,-7.5
26,COc1ccc(Cl)cc1NC(=O)C1=C(C)NC(=S)NC1c1ccccc1F (stereo not drawn),14.5
